Test results reported in the RNAGym collection of RNA variant scans (doi:10.1093/nar/gkz1192).
The source gives no read counts; variants with many changes may rest on few reads.

B1: CPEB3 Ribozyme (parent)
chain: UAACAGGGGGCCACAGCAGAAGCGUUCACGUCGCAGCCCCUGUCAGAUUCUGGUGAAUCUGCGAAUUCUGCUGUAUAUCUC

Variants of: B1
Experiment: self-cleavage, relative activity (ratio to wild type); higher = more cleavage; in vitro, sequencing
Summary of the method: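 Relative activity compares each variant's cleaved/total read fraction with that of the unmutated ribozyme. To get these fractions, barcoded CPEB3 ribozyme libraries from rounds of error-prone PCR were transcribed with T7 RNA polymerase for 5 hours at 37°C and then given 15 min of DNase I treatment before EDTA was added. The RNAs were reverse transcribed with template switching and sequenced on Illumina, and DNA sequencing linked barcodes to variants. A minimum of 5 reads applied, and three batches were averaged.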
UAGCAAAGGGCCACAGCAGAAGCGUCCGCGUCGCAGCCCCUGUCAGAUUCUGGUGAAUCUGCGAAUUCUGCUGUAUAUCUC [A3G G6A G7A U26C A28G] gave a self-cleavage of 0.4.
In the case of UAGCAGGGGGCCACAGUAGAAGCGUUCACGUCGCGGCCCCUGUCAGAUUCUGGUGAAUCUGCGGAUUCUGCUGUAUAUCUC [A3G C17U A35G A64G], the self-cleavage is reported as 0.69.
For UAGCAGGGGGCCACAGCAGAAGCGUUCACGUUGCAGCCCCGGUCAGAUUCUGGUGAAUCUGCGAAUUCUGCUGUAUAUCUC [A3G C32U U41G], the self-cleavage was 0.1.
In the case of UAGCAAGGGGCCACAGCAGAAGCGUUCACGUCGCAGCCCCUGUCAGAUUCUGGUGAAUCUGCGAAUUCUGCUGUAUAUCCC [A3G G6A U80C], the self-cleavage is reported as 0.56.
Variant UAGCAGGGGGCCACAGCAGAAGCGUUCACGUCGCAGCACCGGUCUGAUUCUGGUGAAUCUGCGAAUCCUGCUGUAUAUCUC [A3G C38A U41G A45U U67C] has a self-cleavage of 0.22.
UAGCAGGGGGCCACAGCAGAAGCGUUCAGGUCGCAGCCCCUGUCAGAUUCUGGCGAAUCUGCGAAUCCUGCUGUAUAUCUC [A3G C29G U54C U67C] gave a self-cleavage of 0.13.
With UAGCAGGGGGCCACAGCAGAAGGGUUCACGUCGCAGCCCCCGUCAGACUCUGGUGAAUCUGCGAAUUCUGCUGUAUACCUC [A3G C23G U41C U48C U78C] the self-cleavage was 0.07.
In the case of UAGCAGGGGGCCACAGCAGAAGCGUUCACGUCGCAGCCCCUGUCAGAUUCUGGUGAAUCUGCGAAUUUUGCUGUACAUCUC [A3G C68U U76C], the self-cleavage is reported as 1.11.
UAGCAGGGGGCCAUAGCGGAAGCGUUCACGUCGCAGCCCCUGUCAGAUUCUGGUGAAUCUGCGAAUUCUGCUGUAUAUCUC [A3G C14U A18G] showed a self-cleavage of 0.88.
For UAGCAGGGGGCCACAGCAGAAGCGUUUACGUCGCAGCCCCUGUCAGAUUCUGGCGAAUCUGCGAAUUCUGCUGUAUACCUC [A3G C27U U54C U78C], the self-cleavage was 0.11.
In the case of UAGCAAGGGGCCACAGCAGAAGCGCUCACGGCGCAGCCCCUGUCAGAUCCUGGUGAAUCUGCGAAUUCUGACGUAUAUCUC [A3G G6A U25C U31G U49C C71A U72C], the self-cleavage is reported as 0.13.
Variant UAGCAGGGGGCUACAGCAGAAGCGUUCACGUCGCAGCCCCCGUCAGAUUCUGGUGAAUCUGCGAAGUCUGCUGUAUAACUC [A3G C12U U41C U66G U78A] has a self-cleavage of 0.92.
Variant UAGCAGGGGGCCACAGGAGAACCGUUCACGUCGCAGCCCCUGUCAGAUUCUGGUGAAUCUGCGAAUUCAGCUGUAUAUCUC [A3G C17G G22C U69A] has a self-cleavage of 0.1.
UAGCAGGGGGCCACAGCAGAAGCGUUUACGUCGCAGCCCCUGUCAGAUUCUGGUGAGUCUGCGAAUUCUGCUGUAUAUCUC [A3G C27U A57G] showed a self-cleavage of 0.41.
UAGCAGGGGGCCACAGCAGAAGCGUUCACGUCGCAGCCCACGUCAGAUUCUGGUGAAUCUGCGAAUUCUGCUGUAUAUCUC [A3G C40A U41C] gave a self-cleavage of 0.1.
With UAGCAGGGGGCCACAGCAGAAGCGUUCACGUCGCAGCCCCUGUUAGAUUCUGGUGAAUCUGCGAACUCUGCUGUAUAUCUC [A3G C44U U66C] the self-cleavage was 0.4.
Work on UAGCAGGGGGCCACAGUAGAAGCGUUCACGUCGCAGCCCCUGUCAGAUACUGGUGAACCUGUGAAUUCUGCUGUAUGUCUC [A3G C17U U49A U58C C62U A77G] yielded a self-cleavage of 0.11.
UAGCAGGGGGCUACAGCAGAAGCGUUCACGUCGCAGCCCCUGUCAGAUCCUGGUGAAUCUGCGAAUUCCGCUGUAUAUCUC [A3G C12U U49C U69C] gave a self-cleavage of 0.31.
In the case of UAGCAGGGGGCCAUAGCAGAAGCGUUCACGUCGCAGCCCCUGUCAGAUUCAGGUGGAUCUGCGAAUUCUGCUGUAUAUCUC [A3G C14U U51A A56G], the self-cleavage is reported as 0.92.
For UAGCAGGGGGCCACAGCAGAAGUGUUCUCGUCGCAGGCCCUGUCAGAUUCUGGUGAAUCUGCGAAUUCUGCUGUAUAUCUC [A3G C23U A28U C37G], the self-cleavage was 0.21.
For UAGCAGGGGGCUACAGCAGAAGCGCUCACGUCGCAGCCCCAGUCAGAUUCAGGUGAAUCUGCGAAUUCUGCCGUAUAUCUC [A3G C12U U25C U41A U51A U72C], the self-cleavage was 0.3.
UAGCAGGGGGCCACAGCAGAAGCGUUCAUGUUGCAGCCCCUGUCAGAUUCUGGUGAAUCUGCGAAUUCUGCUGUAUAUCUC [A3G C29U C32U] gave a self-cleavage of 0.12.
UAGCAAGGGGCCACAGCAGAAGCGUCCACGUCGCAGCCCCUGUCAGAUUCUGGUGAAUCUGCGAAUUCUGCUGUAUAUCUC [A3G G6A U26C] gave a self-cleavage of 0.4.
UAGCAGGGGGCCACAGCAGAAGCGUUCACGUUGCAGCCCCUGUCAGAUUCCGGCGAAUCUGCGUAUUCUGCUGUAUAUCCC [A3G C32U U51C U54C A64U U80C] gave a self-cleavage of 0.18.
In the case of UAGCAGGGGGCCACAGCAGAAGCGUUAACGUCGCAGCCCCUGUCAGAUUCUGGUGAAUCUGCGAAUUCUGCUGUACAUCUC [A3G C27A U76C], the self-cleavage is reported as 0.44.
Work on UAGCAGGGGGCCACAGCAGAAGUGUUCACGUCGCAGCCCCCGUCAGAUUCUGGUGAAUCUGCGAAUUCAGCUGUAUAUCUC [A3G C23U U41C U69A] yielded a self-cleavage of 0.33.
In the case of UAGCAAGGGGCCACAGCAGAAGCGUUCACGUUGCAGCCCCUGUCAGAUUCUGGUGAAUCAGCGAAUCCUGCUGUAUAUCUC [A3G G6A C32U U60A U67C], the self-cleavage is reported as 0.08.
In the case of UAGCAGGGGGCCACAGCAGAAGCGUUUACGUCGCAGCCCCUGUCAGAUUCUGGUGAAUCUGCGUAUUCUGCUGUAUAUCUC [A3G C27U A64U], the self-cleavage is reported as 0.4.
For UAGCAGGGGGCCACAGCAGAAGCGUUCACGUCGCAGCCCCUGUUAGACUCUGGUGAAUCUGCGAAUUCUGCUGUAUAUCCC [A3G C44U U48C U80C], the self-cleavage was 0.13.
For UAGCAGGGGGCCAUAGCAGGAGCGCUCACGUCGCAGCCCCUGUCAGAUUCUGGUGAAUCUGCGAGUUCUGCUGUAUAUCUC [A3G C14U A20G U25C A65G], the self-cleavage was 0.1.
Variant UAGCAGGGGGCCACAGCAGAAGUGUUCACGUCGCAGCCCCUGACAGAUUCUGGCGAAUCUGCGUAUUCAGCUGUAUAUCUU [A3G C23U U43A U54C A64U U69A C81U] has a self-cleavage of 0.08.
UAGCAGGGGGCCAAAGCAGAAGCGUUCACGUCGCAGCCCGUGCCAGAUUCUGGUGAAUCUGCGAACUCUGCUGUAUAUCCC [A3G C14A C40G U43C U66C U80C] gave a self-cleavage of 0.07.
For UAGCAGGGGGCCACAGCAGAAGCGUUCACGUCGCAGCCUCUGUCAGGUUCUGGUGAAUCUGCGAAUUCUGCUGUAUAUCUC [A3G C39U A47G], the self-cleavage was 0.73.
With UAGCAGGGGGCCACAGCAGAAGCGUUCACGUCGCAGCCUCUGUCAGAUUCUGGUGAAUCUGCGUAUUCUGCUGUAUAUCUA [A3G C39U A64U C81A] the self-cleavage was 0.12.
